The record followed here is ChEMBL document CHEMBL4888484, “Replenishing the malaria drug discovery pipeline: Screening and hit evaluation of the MMV Hit Generation Library 1 (HGL1) against asexual blood stage Plasmodium falciparum ,using a nano luciferase reporter read-out” (2022).

Each structure is given as a SMILES string. Screen size: about 150,000 compounds; about 540 (0.36%) showed an effect of 50% or more. This is one part of the list.

In the experiment the test system is Plasmodium falciparum. The experiment can be described thus: Primary screen in NF54 nanoGlo assay, in single point, at 2uM, 72h; a lower Z score goes with more inhibition. The experiment is classed as functional, Erythrocyte. To be noted: timepoint 72 hour.
For orientation: % Inhibition means the change of the read-out against control, counted positive when it falls. With `O=C(N[C@@H](c1ccccc1)c1nc2ccccc2[nH]1)c1ccncc1`, the “% Inhibition” value was -13% and the Z score is given as 1.63.

As for `CCC1(CC)CCN(C[C@]2(O)CCCN(CCc3ccccc3)C2=O)C1`, the “% Inhibition” value is recorded as -7% and the Z score worked out at 1.3.

Take `CCc1sc(C(=O)N2CCC[C@@H]2C(=O)O)cc1C`: the “% Inhibition” value is reported as -14% and the Z score is 1.91.

As for `O=C(Cc1cccc(F)c1F)N1C[C@H]2C[C@H](C1)[C@@H]1CCCC(=O)N1C2`, the “% Inhibition” value is on record as -14% and the Z score was 2.02.

For `CCOc1ccc(CNc2nc(NCc3ccc(OCC)cc3)n(C(=O)COc3ccc(Cl)cc3)n2)cc1`, the “% Inhibition” value is on record as 9% and the Z score is listed as -1.1.

For `COCCN(Cc1cc(C)no1)CC(C)C`, the “% Inhibition” value is listed as -8% and the Z score is listed as 1.18.

`CC(C)C(=O)N1CCC([C@@H]2CN(Cc3ccncc3F)C[C@H]2CO)CC1`: the “% Inhibition” value is given as -6% and the Z score was determined as 0.86.

With `CC(C)[C@@H](C(=O)N1Cc2cncnc2C1)c1ccc(F)cc1`, the “% Inhibition” value is 0% and the Z score is given as -0.03.

For the compound `CC(C)c1ccc(C(=O)N[C@@H](CO)c2ccnn2C)s1`, the “% Inhibition” value is -13% and the Z score turned out to be 1.72.

On to `COCC1(N(C)C(=O)[C@H]2CCC(=O)N(c3cnn(C)c3)C2)CCC1`, for which the “% Inhibition” value is -8% and the Z score turned out to be 1.04.

As to `COCCC(=O)N[C@@H](C)c1cnn(-c2ccc(OC)cc2)c1`, the “% Inhibition” value was -4% and the Z score was 0.76.

For the compound `Cc1nsc(N2CC3OCCN(Cc4ccccc4)C3C2)n1` (centres undefined), the “% Inhibition” value was -9% and the Z score is listed as 1.14.

As to `Cc1cc(Br)ccc1S(=O)(=O)N[C@@H](C)CO`, the “% Inhibition” value is 0% and the Z score was -0.03.

With `CC(C)(C(=O)N1CCN([C@H]2CCCCNC2=O)CC1)c1ccccc1`, the “% Inhibition” value is reported as 1% and the Z score is on record as -0.19.

Take `Cc1ccc(-c2noc(C3CC34CCOC4)n2)cc1N1CCCC1` (centres undefined): the “% Inhibition” value turned out to be 2% and the Z score is reported as -0.26.

For the compound `CCc1cccc(N2C(=O)c3cc(-c4cccs4)nn3C[C@@]2(C)C(=O)NCc2ccc(C)cc2)c1`, the “% Inhibition” value is reported as -10% and the Z score came to 1.51.

For the compound `c1cc(CN2CC[C@]3(CCOC3)C2)c2cc[nH]c2c1`, the “% Inhibition” value is -5% and the Z score amounted to 0.48.

As for `O=C(NCCn1ccnc1-c1ncccn1)NCc1cccs1`, the “% Inhibition” value is given as 9% and the Z score was -1.1.

For `CCC(C)N1C(=O)C(Cc2ccccc2)NC12CCN(C(=O)c1ccc(C)cc1)CC2` (centres undefined), the “% Inhibition” value is recorded as -6% and the Z score is 1.

On to `Cc1nnc2n1C[C@@H](Nc1cnc3ccccc3n1)CC2`, for which the “% Inhibition” value is -5% and the Z score was 0.68.

On to `O=C(Nc1cccs1)N1CC[C@H](c2ccc3c(c2)OCO3)C1`, for which the “% Inhibition” value is -1% and the Z score amounted to 0.21.

Consider `COc1ccc(N[C@H]2CCCN(C(=O)c3ccc4ncccc4c3)C2)cc1OC`, for which the “% Inhibition” value stood at 5% and the Z score was -0.56.

Consider `Cc1ccc(O[C@H]2CCCN(C(=O)c3cnc4ccccc4n3)C2)nn1`, for which the “% Inhibition” value is reported as -13% and the Z score is listed as 2.14.

On to `CC(C)=CCN1CCN(C(=O)c2cnccc2C)[C@H]2CS(=O)(=O)C[C@H]21`, for which the “% Inhibition” value was -6% and the Z score was 0.79.

For `c1cncc(COC2CCN(Cc3ccc(Cn4cccn4)cc3)CC2)c1`, the “% Inhibition” value is listed as -3% and the Z score worked out at 0.59.

For `Cc1ccc2c(c1)CN(Cc1ccc(C)s1)C[C@H](C)O2`, the “% Inhibition” value was 6% and the Z score is given as -0.79.

For `O=C(CN(Cc1ccccn1)C1CC1)N1CCCCCC1`, the “% Inhibition” value is given as -1% and the Z score is listed as 0.07.

As to `CCC(C(N)=O)N(C)CC1CCCCC1O` (centres undefined), the “% Inhibition” value is on record as -6% and the Z score is 0.82.

On to `C[C@@H](CCc1cccn1C)NC(=O)Nc1nnc2ccccn12`, for which the “% Inhibition” value was found to be 2% and the Z score is reported as -0.19.

For `Cc1cc(C)cc(CN2CCN(C(=O)c3ccc(C)c(F)c3F)CC2=O)c1`, the “% Inhibition” value is listed as -14% and the Z score was 2.77.

`CCC[C@@](C)(CO)NC(=O)c1ccc(F)cc1C`: the “% Inhibition” value is reported as -2% and the Z score is given as 0.47.

As for `CC(C)c1nnc([C@H](C)NC(=O)c2ccn(C(F)F)n2)o1`, the “% Inhibition” value is 1% and the Z score is -0.14.

As to `CC1(C)CC(NC(=O)Cn2c(COc3ccccc3)nc3ccccc32)CC(C)(C)N1`, the “% Inhibition” value is on record as -2% and the Z score is 0.3.

As for `Cn1cccc1-c1noc([C@H]2CCN(C(=O)c3nccc4ccccc34)C2)n1`, the “% Inhibition” value is given as -15% and the Z score amounted to 1.92.

Regarding `CC(CN(C)C(=O)OC(C)(C)C)C(=O)N1CC(NC2CCOC2)C1` (centres undefined), the “% Inhibition” value stood at 12% and the Z score is -1.69.

As for `CC[C@@H](C(=O)O)N1CCC(N2CCc3ccccc32)CC1`, the “% Inhibition” value was -4% and the Z score came to 0.62.

On to `Cc1c(C(=O)N[C@@H]2CCC[C@@H]2n2ccnc2)ccn1Cc1ccccc1`, for which the “% Inhibition” value is listed as -2% and the Z score came to 0.45.

As to `O=C(O)c1c2c(nc3ccc(S(=O)(=O)N4CCC(C(=O)N[C@H]5CCCc6ccccc65)CC4)cc13)CCCC2`, the “% Inhibition” value was -8% and the Z score amounted to 1.23.

For the compound `CCCN(CCC)S(=O)(=O)Cc1ccccc1`, the “% Inhibition” value is -8% and the Z score was 0.99.

Turning to `CN(Cc1cnccn1)C(=O)Cn1ccc2ccccc21`, the “% Inhibition” value is reported as -6% and the Z score is 0.66.

Take `CCCC1(CCC)NC(=O)N([C@@H](C)C(=O)Nc2ccc(N3CCOCC3)cc2)C1=O`: the “% Inhibition” value is -4% and the Z score came to 0.55.

Take `COC(=O)C[C@H](NC(C)=O)C(=O)Nc1cccc2c1OC(C)(C)CC2`: the “% Inhibition” value was found to be 26% and the Z score is given as -3.32.
